Paper PMC11565934 (bioRxiv, 2024)

Legend:
[1] = target: PKA-C G136C in a minimal-cysteine ((-)Cys, C199A) background (mouse, UniProt P05132, C199A | G136C); assay: cross-linking
myristylated PKA-Cα K7C = myristylated PKA-Cα K7C (mouse, UniProt P05132, K7C, N-terminal myristylation); assay: SPR
[2] = target: T1, wild-type, nonmyristylated mouse PKA-C (catalytic subunit of protein kinase A) (mouse, UniProt P05132); assay: cross-linking
[3] = target: T1, wild-type, nonmyristylated mouse PKA-C …; assay: HDX-MS

B1: phosphorylated SMO S570C (FLAG-tagged mouse SMO […]) (receptor)
chain: not shown
modifications: GRK2/3-phosphorylated; mapped sites pS560, pS594, pT597, pS599, pS615, pS642, pT644, pT648
B1: binds [1].

B2: phosphorylated SMOOTHENED (pSMO), FLAG-tagged mouse SMO […], GRK2-phosphorylated, wild type (receptor)
chain: not shown
modifications: GRK2/3-phosphorylated; mapped sites pS560, pS594, pT597, pS599, pS615, pS642, pT644, pT648
In the case of B2, the Kd (myristylated PKA-Cα K7C) is reported as 82 nM.

B3: SMO L637C (FLAG-tagged mouse SMO […]) as used in Fig. 2b (receptor)
chain: not shown
B3: binds [2].

B4: phosphorylated SMO A574C (FLAG-tagged mouse SMO […]) (receptor)
chain: not shown
modifications: GRK2/3-phosphorylated; mapped sites pS560, pS594, pT597, pS599, pS615, pS642, pT644, pT648
B4: binds [1].

B5: phosphorylated SMO L637C (pSMO L637C; FLAG-tagged mouse SMO […]) (receptor)
chain: not shown
modifications: GRK2/3-phosphorylated; mapped sites pS560, pS594, pT597, pS599, pS615, pS642, pT644, pT648
B5: binds [3].
